Here are results for eleven compounds from the supplement of paper PMC4604168 (melanoma cell lines).

This is one part of the list. Most values come without repeats; read them as rough.
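Note: cells treated in 1,536-well plates, then fixed and DAPI-stained, with nuclei counted from automated high-throughput microscope images.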

The subject of the experiment is LOXIMVI. Briefly: cell count relative to DMSO control; melanoma cells; higher = more viable cells. To be noted: library dose: standard library concentration; 72 h.
`CC[C@]1(O)C[C@H]2CN(CCc3c([nH]c4ccccc34)[C@@](C(=O)OC)(c3cc4c(cc3OC)N(C=O)[C@H]3[C@@](O)(C(=O)OC)[C@H](OC(C)=O)[C@]5(CC)C=CCN6CC[C@]43[C@@H]65)C2)C1` [vincristine] + O=C(Nc1cc(C(F)(F)F)cc(C(F)(F)F)c1)c1cc(Cl)ccc1O [IMD0354] (first compound 0.0005 µM, partner dose 0.08 µM) displayed a cell count of 69.7%.
On to `N#CC[C@H](C1CCCC1)n1cc(-c2ncnc3[nH]ccc23)cn1` [ruxolitinib] + Nc1cccc2c1CN(C1CCC(=O)NC1=O)C2=O [lenalidomide] (first compound 5 µM, partner dose 5 µM), for which the cell count is 142%.
For `CC[C@]1(O)C[C@H]2CN(CCc3c([nH]c4ccccc34)[C@@](C(=O)OC)(c3cc4c(cc3OC)N(C=O)[C@H]3[C@@](O)(C(=O)OC)[C@H](OC(C)=O)[C@]5(CC)C=CCN6CC[C@]43[C@@H]65)C2)C1` [vincristine] + COCC[n+]1c2c(n(Cc3cnccn3)c1C)C(=O)c1ccccc1C2=O [YM155] (first compound 0.0005 µM, partner dose 0.002 µM), the cell count worked out at 37.1%.
The same measure for `Cc1cc(Nc2cc(N3CCN(C)CC3)nc(Sc3ccc(NC(=O)C4CC4)cc3)n2)n[nH]1` [Tozasertib] + O=C(CCCCCCC(=O)Nc1ccccc1)NO [vorinostat] (first compound 0.03 µM, partner dose 0.4 µM): 68.5%; for `N#CC[C@H](C1CCCC1)n1cc(-c2ncnc3[nH]ccc23)cn1` [ruxolitinib] + CN(c1ncccc1CNc1nc(Nc2ccc3c(c2)CC(=O)N3)ncc1C(F)(F)F)S(C)(=O)=O [PF562271] (first compound 5 µM, partner dose 0.4 µM): 61.1%.
The same measure for `N#CC[C@H](C1CCCC1)n1cc(-c2ncnc3[nH]ccc23)cn1` [ruxolitinib] + CC(=O)O[C@@]12CO[C@@H]1C[C@H](O)[C@@]1(C)C(=O)[C@H](O)C3=C(C)[C@@H](OC(=O)[C@H](O)[C@@H](NC(=O)OC(C)(C)C)c4ccccc4)C[C@@](O)([C@@H](OC(=O)c4ccccc4)[C@H]21)C3(C)C [Docetaxel] (first compound 5 µM, partner dose 0.0005 µM): 48.9%.
For `N#CC[C@H](C1CCCC1)n1cc(-c2ncnc3[nH]ccc23)cn1` [ruxolitinib] + C=C(c1ccc(C(=O)O)cc1)c1cc2c(cc1C)C(C)(C)CCC2(C)C [Bexarotene] (first compound 5 µM, partner dose 10 µM) the value was 144%; for `CC[C@]1(O)C[C@H]2CN(CCc3c([nH]c4ccccc34)[C@@](C(=O)OC)(c3cc4c(cc3OC)N(C=O)[C@H]3[C@@](O)(C(=O)OC)[C@H](OC(C)=O)[C@]5(CC)C=CCN6CC[C@]43[C@@H]65)C2)C1` [vincristine] + O=S(=O)(c1ccccc1)N(CC(F)(F)F)c1ccc(C(O)(C(F)(F)F)C(F)(F)F)cc1 [T0901317] (first compound 0.0005 µM, partner dose 7 µM), 73.3%; for `Cc1cc(Nc2cc(N3CCN(C)CC3)nc(Sc3ccc(NC(=O)C4CC4)cc3)n2)n[nH]1` [Tozasertib] + COc1ccc(C2=N[C@@H](c3ccc(Cl)cc3)[C@@H](c3ccc(Cl)cc3)N2C(=O)N2CCNC(=O)C2)c(OC(C)C)c1 [Nutlin-3] (first compound 0.03 µM, partner dose 0.5 µM), 93.9%.
`CC[C@]1(O)C[C@H]2CN(CCc3c([nH]c4ccccc34)[C@@](C(=O)OC)(c3cc4c(cc3OC)N(C=O)[C@H]3[C@@](O)(C(=O)OC)[C@H](OC(C)=O)[C@]5(CC)C=CCN6CC[C@]43[C@@H]65)C2)C1` [vincristine] + CS(=O)(=O)c1ccc(C(=O)Nc2ccc(Cl)c(-c3ccccn3)c2)c(Cl)c1 [vismodegib] (first compound 0.0005 µM, partner dose 5 µM) had a cell count of 76.7%.
For `CC[C@]1(O)C[C@H]2CN(CCc3c([nH]c4ccccc34)[C@@](C(=O)OC)(c3cc4c(cc3OC)N(C=O)[C@H]3[C@@](O)(C(=O)OC)[C@H](OC(C)=O)[C@]5(CC)C=CCN6CC[C@]43[C@@H]65)C2)C1` [vincristine] + C#Cc1cccc(Nc2ncnc3cc(OCCOC)c(OCCOC)cc23)c1 [erlotinib] (first compound 0.0005 µM, partner dose 4 µM) the value was 59.8%.
